Measured values reported in the supplement of paper PMC11417369.
Some of the results follow.

The sequences below were run on PfAP2-HC AP2 domain (GST-tagged) (assay: gcPBM binding intensity (ln(normalized median fluorescence intensity)); higher = stronger DNA binding).
How it was run: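 After 1 h on an Agilent 4 × 180k array of primer-extended double-stranded 36-bp intergenic genomic probes and negative controls, bound GST-tagged P. falciparum DNA-binding domains were detected with Alexa488 anti-GST antibody and scanned at 488 nm. The domains had been expressed in E. coli, and binding took place in 1× PBS with 1% milk, 0.2 mg/ml BSA, 0.5% salmon testes DNA and 0.03% Triton X-100. Binding intensity is the highest Masliner-normalised natural-log median intensity across replicate spots of either probe orientation.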

Sequence | gcPBM binding intensity (ln)
AAAAAAAAAAAAAAAAGTACTCTATAAGTAACATTT [XGTACX_site6973] | 9.44
ATTTTTTTGTTATTGTTGAAAAGATGGTTCTTTTTT [CACACA_negctrl_site1346] | 9.52
AATTTCTTATTTTGTACACACAATAAATATTCACAT [CACACA_site1612] | 10
AAAATAAGAAAACAAATGCACACCATTTATATAGAT [CACACA_site1055] | 10.1
TATATAATAAGAAAATATGTGCGTAGTTCAGCAAAA [XGTACX_negctrl_site304] | 9.88
AATTGGATAAACCAATTGGATTATAATACGATATAT [CACACA_negctrl_site275] | 9.66
GAAAAATATATTCTGGTGCATGAATAAAATCATAAA | 9.52
ATATATATATATATATGTACATAATTAATAGCATAT [XGTACX_site1428] | 9.86
GAAAAAGATGCGCATACACACAGATGAATAACAAAA [CACACA_site1628] | 10.2
ATCATATTTATGTTGGTGCATTATACATAAAGTTTA [GTGCAC_site9574] | 9.56
TGTCTTATTTATATTACACACTATATGAAAAAATAT [CACACA_site6807] | 9.58
TATTCATCACTTTTTTGTACTTATGGATAAAATTTT [XGTACX_site3349] | 9.62
AAAGGATATATCCAGAGTACATATTCTGTGTAATAC [XGTACX_site1547] | 9.78
CACAAAAAAAATTATACACACACACCCATATATATA [CACACA_site8255] | 10.3
ATAATTGTTTCTTTCTCCTTTTTATTTCATTTTAAA [CACACA_negctrl_site964] | 9.64
AATAAATACTAAATGGTGCAAAATTTTTTAACACTG | 9.63
TTTCAAAAATGAGTTACACACACACCGATATATATA [CACACA_site5263] | 10.4
AGCCACCATATTTACACACACATCAAAATGTATTAA [CACACA_site1816] | 10.2
TATATATATTATAGATGTACTTTCATATATATGTTT [XGTACX_site8189] | 9.79
TAAATATAATCTAAATGTACATGACATAATTTTTTT [XGTACX_site2856] | 9.56
TAAAATATTTTTTGTAGTACCTTAATATTTTTGAAG [XGTACX_site3048] | 9.21
GTGTAATATGAAATGTGTACACACGCACACACAAAA [XGTACX_site6180] | 10.7

Sequence | gcPBM binding intensity (ln)
TATTTATTTATGTACGCACACAGTTGATATTAATTC [CACACA_site2754] | 9.94
ATGTATATTTTTAAAAGTACAGAATTTTCATATGAA [XGTACX_site5754] | 9.55
ATATACAATACAAAAACACACACAAAAAAAGAAAAG [CACACA_site8668] | 10.4
ATAGTATCTGGTAGCTGTACGAGTCGTAGAGTCTAA [XGTACX_site2539] | 9.49
AGATATATATATAGGTGTACTGGAATGAAATTGTTT [XGTACX_site8200] | 9.89
ATGATAATTATTAAGGGTACATAAAAATATATCTAT [XGTACX_site8969] | 9.62
TATAATTATTTTTTCACACATATGTATTTATATATA [CACACA_site4205] | 9.86
ATTATTTAACATGTGGACACAAAAATTTAAGGGTTC [CACACA_negctrl_site1269] | 9.69
TACTAAGAAAAGAACTGTACATAGAATATACCCAAG [XGTACX_site4757] | 9.64
AATATCAAAAAAAAAAAAAAAAAAAAAAAAAAAAAA [CACACA_negctrl_site288] | 8.88
AATATATTAAATATTACACACATACATTTAGTGGAA [CACACA_site8609] | 9.78
TAGTATTATTTTTTTTGTACATATAAATGTAAAATA [XGTACX_site5282] | 9.39
AAAACATAAATACATACACACATAATATATATTAAG [CACACA_site4239] | 10.3
TTTTTTTAAAATATGAGTACATAATATTGTAAAAAT [XGTACX_site6536] | 9.33
CTTGGTAGTTTTTTCTTATAATCTAATTATTAATAA [CACACA_negctrl_site153] | 9.56
ATATATTAATATGTGTGTACTTAACCATTCATATGT [XGTACX_site7395] | 9.96
TTAATATATAATAAATTTTTTTTTTTTTTTTTTTTT [CACACA_negctrl_site892] | 9.35
TTAATATGAAAACTCTGTACCCAACCTTCTTATGGA [XGTACX_site2126] | 9.7
TATATAAATATATAATGTACGTTTTAAAAATAATAT [XGTACX_site3881] | 9.59
ATATAATAAATGTAGGTGCATAAAAATATTTTGTTA [GTGCAC_site9780] | 9.85
TTAACCACTAAAAGTACACACATATATACCTATATA [CACACA_site6026] | 9.86
TTTTAATAATATGGATGTACATAAAAATAAATAAAT [XGTACX_site7937] | 9.77

Sequence | gcPBM binding intensity (ln)
TACTAAATGATCATATGTACACATGTTTACTTTTTA [XGTACX_site1253] | 9.81
AATATATATATATATATATATATTTCAATATATAAA [XGTACX_negctrl_site187] | 9.59
ATACATATACACATTTGTACATATTCCTTTTTATCG [XGTACX_site1731] | 9.77
TTATTTAAAATGAAAAGTACATATTACTTTCTCACA [XGTACX_site5043] | 9.47
TCTTGTTTTAATTTTTATATTATTATTTAGATATAT [CACACA_negctrl_site921] | 9.74
AAAAAAAAAAAAAGTGCACACTTTTAATATAAATAT [CACACA_site3314] | 9.68
TTTTTATTTTTTAGTAGTACACACTTTTTGAACCTT [XGTACX_site1091] | 9.74
TTTTTTTTTTTCCTTACACACATATTTCATTTTATA [CACACA_site747] | 9.87
TTTTATATATATTATACACACAAGGAAAAAAAAAAA [CACACA_site3677] | 9.74
TATAAAAGGAAACACACACACATATATATATATATA [CACACA_site939] | 10.5
TGGATATATGTAAAAATTGCAAGAAAGATAAAAGGA [CACACA_negctrl_site64] | 9.77
ATTATGATATATATATGTACATATATATAATATAAT [XGTACX_site259] | 9.67
TCTATGAATTAATATGCATGTAACGTATTTATACTT [TGCATGCA_site669] | 9.63
CAAAAAATATATTTTTGTACTTATGTTTTTATTTTG [XGTACX_site5230] | 9.74
TAGTATAATATGAACACACACACACCCACAAAAAAA [CACACA_site2009] | 10.5
TTATAATATAAAAAATGTACATTAAAAAAAAAGATT [XGTACX_site8950] | 9.74
AAGTATCAAAAATAAAGTACATATTTTGTAGGCAGG [XGTACX_site1463] | 9.8
AAAAGATAAAATTATGCACACATACGAATAATTTTA [CACACA_site8497] | 9.87
TATTTCACACAGTATATATATATATATATATATATA [TGCATGCA_negctrl_site118] | 9.81
AAGGGAAAAAAAAAAGCACACATACGTAAATATATA [CACACA_site7960] | 9.74
GTTAATTTTTGTATAGTGCAAAAATATAATAGTATG | 9.63
TGTTGGTATGTGAATGCATGCATATAAGTCTATCTG [TGCATGCA_site780] | 9.64

Sequence | gcPBM binding intensity (ln)
TTGAAGTATAATAAAGTGCAAAATTATAATGATCTT [GTGCAC_site9639] | 9.78
ATCTGACAAAAGTGTACACATATATATATATATATA [CACACA_site4814] | 9.72
AAATGGGAAATTTCATGTACTCATTTACCCTTATTA [XGTACX_site4740] | 9.52
CACATAATGAAAAATACACACATGTATATTTATAAA [CACACA_site2736] | 9.79
CTTTCATATGTTTTAACACACACGCATATATTATAG [CACACA_site7033] | 10
ATATAAGTTATTTTATACAAAAAAAAAAAAAAAAAT [CACACA_negctrl_site1190] | 9.68
AAGAATGTTAACGTTGCACACAAAAAAAAAGTATAC [CACACA_site8763] | 9.93
AAAAAAAAAAAAAATACACACACATATATATATATA [CACACA_site8698] | 9.93
TATTTATGCACGCGTGCACACACATATGAAAAAAGG [CACACA_site9090] | 9.87
AATTGCTAATGGTACGAACACACATATAAAGATGCA [CACACA_site8634] | 9.77
AGTATACACAGACACACACACACATATATATATATA [CACACA_site8510] | 10.9
TTTTTATGGACTATGGTGCATTATATATAAATGAAA [GTGCAC_site9557] | 9.3
TAATATTATATAAATTGTACTATTTTTTCCTTATTC [XGTACX_site5314] | 9.55
GTAAACAATTATGAACGTACATAAAATAAATGAACA [XGTACX_site7159] | 9.87
TGTCTTTTTAAGTTTTGTACATAAATATATTTCAAA [XGTACX_site427] | 9.6
TTTTCATTTTTCTTTACACACATATATATATATATA [CACACA_site2236] | 10
TATATATATATTTTTTGTACATATTATATAATATAC [XGTACX_site5187] | 9.64
GAAAGACAAATTGTGACACACACAAAAAAAAAAAAA [CACACA_site9241] | 10.2
AAAAAAAAAAAAAAAAAAAAACACCCAAAAAAATAT [XGTACX_negctrl_site210] | 10.1
ATATCAAATTCTGAAACACACAAAATTACACCTCTA [CACACA_site169] | 9.88
TTTTCGATATGCTTTTTTTTTCTACTGTCTTTTTAA [TGCATGCA_negctrl_site54] | 9.61
CAAAAATATTATTATAGTACATAAATAATATATTTT [XGTACX_site6902] | 9.52
